This passage reports self-cleavage results from the RNAGym collection of RNA variant scans (doi:10.1093/nar/gkz1192).

First the molecules themselves.
B1: CPEB3 Ribozyme (parent)
chain: UAACAGGGGGCCACAGCAGAAGCGUUCACGUCGCAGCCCCUGUCAGAUUCUGGUGAAUCUGCGAAUUCUGCUGUAUAUCUC

Read counts are not given, so values of variants with three or more changes are uncertain.

The series covers variants of B1. The experiment in a line: self-cleavage, relative activity (ratio to wild type); higher = more cleavage; in vitro, sequencing. The essentials: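 Relative activity was defined as the cleaved/total read fraction for a variant divided by the same fraction for the unmutated ribozyme. CPEB3 self-cleaving ribozyme libraries were made by rounds of error-prone PCR, barcoded, and transcribed in vitro with T7 RNA polymerase for 5 hours at 37°C, and cleavage ran through transcription plus a 15 min DNase I step before EDTA. Illumina sequencing of template-switched reverse transcripts gave the reads, and DNA sequencing mapped the barcodes. Averages come from three batches, using variants with at least 5 reads.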
As to A21G U25C A28C A56G U69A, the self-cleavage is 0.19.
Next, A21G A28G U31C A64U: 0.07; A21G G30A U41C U49A U76C U80A: 0.06; A21G U31A U78C: 0.3.
Next, A21G G33U U58C U67A U69G U72A: 0.04; A21G U25C A35G A45G U67C: 0.06; A21G A35U A57U U66C: 0.29.
Next, A21G C40U U72A A75G: 0.38; A21G C34G A35G A56G: 0.06; A21G A28G A45G U67C: 0.1.
With A21G A28C U41A, the self-cleavage was 0.26.
Next, A21C A28U U58A: 0.13; A21G A56G U74A: 0.88.
With A20U U66A A77U the figure was 0.28.
A21G A56G U60C: the self-cleavage is 0.31.
Next, A21G A45U U51C: 0.27; A21G C44U G61A: 0.73; A21G U25C C44U U69A U78C: 0.14.
With A21C U54C U76C, the self-cleavage came to 0.21.
Next, A21G U25C A47G U49C U58C: 0.
Next, A21G G30A U72C U78A: 0.05.
Next, A21G G36U U67C: 0.09.
Consider A21G C50G U60C U72C, for which the self-cleavage was 0.17.
Next, A21G U25C A56G: 0.18.
For A21G A28G U69A, the self-cleavage was 0.24.
With A21C U60C U80C the figure was 0.18.
Next, A21G A28U A45U U67C U74A: 0.05.
As to A21G C32U U69C, the self-cleavage was determined as 0.15.
For the variant A21G C23G A28G U41C, the self-cleavage was 0.31.
With A21G A28G U72A U80C the figure was 0.4.
With A21G A35C C39U U54C U67C G70C the figure was 0.03; with A21G C39U G52A A77G, 0.32; with A21C A28G U48C U51A U80C, 0.
Regarding A21G C34U A65U, the self-cleavage turned out to be 0.34.
Consider A21G U25C U67C A75G, for which the self-cleavage worked out at 0.06.
With A21G C39A U58C A65G U69A the figure was 0.07; with A21G U25A U41A, 0.34; with A21G C32U A47G U49C U72C, 0.18.
Take A21G U25C U43C A56G U69C: the self-cleavage came out at 0.04.
Consider A21G U26C U41C, for which the self-cleavage is 0.28.
With A21G C38U A56G the figure was 0.24; with A21G C37U U41G U72C U76C U78C, 0.1; with A21C U31A A64G U80C, 0.19.
With A21C U26C A35U A56G the figure was 0.11; with A21G A28U U72A, 0.13.
Next, A21G U26A U41A U49A: 0.07; A21G A28G A77U: 0.42; A21G U25C G33A: 0.3.
A21G A28U C39A A45U A56G U60C: the self-cleavage was 0.07.
Next, A21G A28G C44U A64U: 0.12; A20U U60C U66C: 0.28; A21G U26A U41C U67C: 0.16.
Next, A21G A28G G52U A64U: 0.15; A21G C23U U31A: 0.07; A21G C34U C59U: 0.06.
For A21G A28U U54C, the self-cleavage is 0.33.
With A21G U25C A28U U41G A56U U72C the figure was 0.04; with A21G G36C A64G, 0.08.
Next, A21G A35U A56G U74A: 0.28.
In the case of A21G C29A C38G U41A U54G U69A A77C, the self-cleavage worked out at 0.05.
Next, A21G U25C U69C: 0.05.
With A21G A35U C38A the figure was 0.13.
Next, A21G A57G U66G U72C: 0.1; A21G A47G U51A: 0.61.
In the case of A21G U31C A75C, the self-cleavage came to 0.35.
As to A20U U60A U69C, the self-cleavage is 0.14.
Next, A20U U67A U78C: 1.03; A21G A28G U69C U80A: 0.11.
With A21G U31C A56C A64U the figure was 0.08; with A21G A45G U58G, 0.11.
With A21G A35U A45G the figure was 0.12; with A21G U31A C37U, 0.14.
Turning to A21G U26C U41A U60C, the self-cleavage was 0.22.
Next, A21G C23G A64G: 0.31.
With A21G U26C U72C U78A the figure was 0.22.
Next, A21G G33A U54A U60C A64U: 0.12; A21G U25C A45U U48C A75U: 0.09.
Turning to A21G U26A A75U, the self-cleavage stood at 0.43.
With A21G U26C G30A the figure was 0.17; with A21G A45U A64U, 0.13; with A21G U31A U60C, 0.1.
Next, A21G U26C U80G: 0.17.
With A21G U25A U41A U74G the figure was 0.24.
